# Reference: the antibiotic and cytotoxicity screens of Wong et al. (2023)
# The other results are listed elsewhere or left out.
# System: HepG2
# Test: cytotoxicity call (relative viability < 0.9)
# Settings: 10 µM
row,Structure (SMILES),cytotoxicity call
1,O=C(C[C@@H]1CC[C@H]2[C@@H](COC[C@H](O)CN2S(=O)(=O)c2ccccc2)O1)NCCN1CCCC1,inactive
2,Cc1ccc(S(=O)(=O)N(C)C[C@@H]2Oc3cc(C#Cc4ccncc4)ccc3S(=O)(=O)N([C@H](C)CO)C[C@H]2C)cc1,active
3,C[C@@H]1CCCCO[C@H](CN(C)C(=O)NC2CCCCC2)[C@@H](C)CN([C@H](C)CO)C(=O)c2cc(NC(=O)CCC(F)(F)F)ccc2O1,inactive
4,C[C@@H]1CN([C@H](C)CO)C(=O)c2cc(NC(=O)c3ccccc3)ccc2O[C@@H](C)CCCCO[C@H]1CN(C)S(=O)(=O)c1ccccc1,active
5,CC1CC2C3CCC4=CC(=O)C=CC4(C)C3(F)C(O)CC2(C)C1C(=O)CO (stereo not given),inactive
6,C[C@H](CO)N1C[C@H](C)[C@H](CN(C)C(=O)Nc2cccc3ccccc23)OCCCC[C@H](C)Oc2ccc(NC(=O)c3ccncc3)cc2C1=O,inactive
7,C[C@@H]1CN([C@H](C)CO)C(=O)Cc2cc(NC(=O)Nc3ccc4c(c3)OCO4)ccc2O[C@H]1CN(C)Cc1ccc(C(F)(F)F)cc1,active
8,Cc1noc(C)c1NC(=O)N(C)C[C@@H]1OCCCC[C@H](C)Oc2ccc(NC(=O)c3ccccc3)cc2C(=O)N([C@@H](C)CO)C[C@H]1C,inactive
9,CCc1nc2ccc(C(=O)N3CCN(S(=O)(=O)CC)CC3)cn2c1N(CCC(C)C)CCN(C)C,inactive
10,C[C@H](CO)N1C[C@H](C)[C@H](CN(C)S(=O)(=O)c2ccc(Oc3ccccc3)nc2)OCc2cn(nn2)CCCC1=O,inactive

# System: S. aureus RN4220
# Test: growth inhibition call (relative growth <= 0.2)
# Settings: 50 µM
row,Structure (SMILES),growth inhibition call
1,COCC(=O)N1C[C@@H](C)[C@H](OC)CN(C)C(=O)c2cc(NC(=O)c3cc(C)on3)ccc2OC[C@H]1C,inactive
2,Cc1cn2nc([C@@H]3CCCCN3C(=O)c3cc(Cl)ccc3NS(C)(=O)=O)cc2nc1N1CC[C@H](N)C1,inactive
3,C[C@@H]1CN([C@@H](C)CO)C(=O)c2cc(C#Cc3ccccc3F)cnc2O[C@@H]1CN(C)C(=O)Cc1cccnc1,inactive
4,C[C@@H]1CN([C@@H](C)CO)C(=O)c2cc(NC(=O)Cc3ccccc3)ccc2O[C@@H](C)CCCCO[C@@H]1CN(C)C(=O)c1ccccc1,inactive
5,C[C@H](CO)N1C[C@H](C)[C@@H](CN(C)C(=O)CCN2CCCCC2)Oc2ncc(C#Cc3ccccc3)cc2C1=O,inactive
6,Cn1cnc(S(=O)(=O)N2C[C@H](O)COC[C@H]3O[C@@H](CC(=O)NCc4ccc(F)cc4)CC[C@@H]32)c1,inactive
7,CCOC(=O)/C(=N/O)c1csc(N)n1,inactive
8,COc1ccc2c3c(n(c2c1)C)[C@@H](CO)N(C[C@]13CCN(CC1)C(=O)c1cccnc1)C(=O)c1cccnc1,inactive
9,CC(C)NC(=O)Nc1cccc2c1O[C@H](CN(C)C(=O)NC1CCCCC1)[C@@H](C)CN([C@@H](C)CO)C2=O,inactive
10,CCc1nc2ccc(C(=O)N3CCN(S(=O)(=O)CC)CC3)cn2c1N(C)C(=O)c1cccc(OC)c1,inactive
11,COc1ccc(NC(=O)Nc2ccc3c(c2)CC(=O)N([C@H](C)CO)C[C@@H](C)[C@H](CN(C)CC2CCCCC2)O3)cc1,inactive
12,C[C@@H]1CN([C@@H](C)CO)C(=O)CCCn2nncc2CO[C@H]1CN(C)C(=O)Nc1ccc(N2CCN(C)CC2)cc1,inactive
13,C[C@@H]1CCCCO[C@@H](CN(C)Cc2ccccc2)[C@@H](C)CN([C@@H](C)CO)C(=O)c2cc(NC(=O)c3ccccc3)ccc2O1,inactive
14,CCCC(=O)Nc1ccc2c(c1)C(=O)N(C)[C@@H]1CC[C@H](CC(=O)NCCN3CCCCC3)O[C@@H]1CO2,inactive
15,Cn1nnnc1SCC(=O)NC(C)(C)C,inactive
16,C[C@@H]1CN([C@H](C)CO)C(=O)c2cc(NS(=O)(=O)c3ccc(F)cc3)ccc2O[C@@H](C)CCCCO[C@@H]1CN(C)CC1CCCCC1,inactive
17,C[C@@H]1CN([C@H](C)CO)C(=O)Cc2cc(NC(=O)Nc3cccc4ccccc34)ccc2O[C@H]1CN(C)Cc1ccc(C(F)(F)F)cc1,inactive
18,C[C@@H]1CN([C@H](C)CO)C(=O)c2cc(NC(=O)C3CCCCC3)ccc2O[C@@H](C)CCCCO[C@@H]1CN(C)C(=O)Nc1ccc2c(c1)OCO2,inactive
19,C[C@@H]1CN([C@H](C)CO)C(=O)c2cccc(NC(=O)Nc3ccc(C(F)(F)F)cc3)c2O[C@@H]1CN(C)Cc1ccc(C(F)(F)F)cc1,inactive
20,COc1c(C)cnc2c1c(=O)n(CC(N)=O)c(=O)n2C,inactive
